Measurements taken from PubChem BioAssay (NCATS).
The inconclusive results got no clear call from the source; some entries with a clear call stand among them for comparison. No potency is given beside an inconclusive call; the fits are too rough. The source made the active and inactive calls. Calls follow the shape of the dose curve; as a rule, active = well fitted curve in the direction sought with a large enough effect; inconclusive = small, poorly fitted or top-dose-only effect, or another doubt; inactive = no such curve, though single readings can be large; an effect the other way counts as inactive or inconclusive.

Legend:
[1] = biological target: Rap guanine nucleotide exchange factor 3 (Homo sapiens) (UniProt O95398); test: Confirmatory qHTS for antagonist of cAMP-regulated guanine nucleotide exchange factor 3 (EPAC1) (AID 1645880); conditions: EPAC1 Rap1B-BODIPY-GDP exchange, fluorescence; activity, negative = inhibition: at 115 µM (top of the series); also: nearly all actives have a fitted effect of over 55% in size;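 as to activity, negative = inhibition: plate controls were DMSO only for no effect and full effect of the ATA control for full effect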
Procedure, shortened: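 Released BODIPY-GDP fluoresces less than Rap1-bound BODIPY-GDP; the signal is followed at 480/540 nm at 5-min intervals over 30 min, after 5 min at room temperature. Reactions contain 100 nM EPAC1, 250 nM RAP1B-BODIPY-GDP and 50 uM GDP; results are normalized to ATA and DMSO.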

[2] = biological target: Rap guanine nucleotide exchange factor 4 (Homo sapiens) (UniProt Q8WZA2); test: Confirmatory qHTS for agonist of cAMP-regulated guanine nucleotide exchange factor 4 (EPAC2) (AID 1645884); conditions: EPAC2 GEF activity, Rap1B-BODIPY-GDP fluorescence; activation: at 154 µM (top of the series), percent relative to cAMP agonist control;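 also: nucleotide exchange releases bodipy-GDP from Rap1 and this lowers its fluorescence; nearly all actives have a fitted effect of over 65% in size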; as to activation: % is scaled to controls: 0 for no effect and ±100 for the full control effect
[3] = biological target: Rap guanine nucleotide exchange factor 4 (Homo sapiens) (UniProt Q8WZA2); test: Confirmatory qHTS for antagonist of cAMP-regulated guanine nucleotide exchange factor 4 (EPAC2) (AID 1645885); conditions: activity change, negative = inhibition: at 12.7 µM (top of the series) unless noted; also: nearly all actives have a fitted effect of over 25% in size; as to activity change, negative = inhibition: % is scaled to controls: 0 for no effect and ±100 for the full control effect
[4] = biological target: Rap guanine nucleotide exchange factor 3 (Homo sapiens) (UniProt O95398); test: Counterscreen qHTS for agonist of cAMP-regulated guanine nucleotide exchange factor 3 (EPAC1) (AID 1645889); conditions: EPAC1 Rap1B-BODIPY-GDP exchange, fluorescence; activation: at 154 µM (top of the series) unless noted; also: nearly all actives have a fitted effect of over 40% in size
Procedure, shortened: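 Measured: fluorescence of BODIPY-GDP bound to Rap1B, which falls as exchange proceeds. Conditions include 50 uM competing GDP, 5 and 30 min reads, and a later cAMP challenge for antagonist detection.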
Potency is read from the fitted curve at half-maximal effect; tags tell the direction and shape of the fitted curve.

Sequence of UniProt Q8WZA2 (Q8WZA2 whole entry, looked up): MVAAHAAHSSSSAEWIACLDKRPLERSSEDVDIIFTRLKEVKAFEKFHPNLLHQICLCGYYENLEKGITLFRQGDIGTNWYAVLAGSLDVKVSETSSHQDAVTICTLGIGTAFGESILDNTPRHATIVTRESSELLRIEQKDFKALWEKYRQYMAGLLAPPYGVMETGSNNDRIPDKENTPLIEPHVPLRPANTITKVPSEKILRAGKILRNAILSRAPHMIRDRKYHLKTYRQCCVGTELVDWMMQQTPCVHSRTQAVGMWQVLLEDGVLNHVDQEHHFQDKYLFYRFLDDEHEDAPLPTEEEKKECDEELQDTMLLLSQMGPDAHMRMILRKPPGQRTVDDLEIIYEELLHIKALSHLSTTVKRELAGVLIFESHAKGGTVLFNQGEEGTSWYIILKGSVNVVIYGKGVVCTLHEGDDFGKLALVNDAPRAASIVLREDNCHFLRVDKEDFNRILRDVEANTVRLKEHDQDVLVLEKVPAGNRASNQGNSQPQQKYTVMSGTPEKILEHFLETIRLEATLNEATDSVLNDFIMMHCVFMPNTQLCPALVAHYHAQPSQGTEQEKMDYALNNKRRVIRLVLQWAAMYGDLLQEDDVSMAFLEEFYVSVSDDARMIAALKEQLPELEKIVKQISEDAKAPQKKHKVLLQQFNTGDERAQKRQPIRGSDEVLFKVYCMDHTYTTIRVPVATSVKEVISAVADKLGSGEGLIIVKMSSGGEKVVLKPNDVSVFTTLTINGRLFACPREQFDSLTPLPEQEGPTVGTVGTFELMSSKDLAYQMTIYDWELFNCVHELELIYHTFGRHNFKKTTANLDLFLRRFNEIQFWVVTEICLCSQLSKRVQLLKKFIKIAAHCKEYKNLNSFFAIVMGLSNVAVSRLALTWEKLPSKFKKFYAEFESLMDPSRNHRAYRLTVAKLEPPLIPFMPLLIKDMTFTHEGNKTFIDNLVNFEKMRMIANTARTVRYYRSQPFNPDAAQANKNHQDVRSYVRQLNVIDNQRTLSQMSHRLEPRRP
Sequence of UniProt O95398 (O95398 whole entry, looked up): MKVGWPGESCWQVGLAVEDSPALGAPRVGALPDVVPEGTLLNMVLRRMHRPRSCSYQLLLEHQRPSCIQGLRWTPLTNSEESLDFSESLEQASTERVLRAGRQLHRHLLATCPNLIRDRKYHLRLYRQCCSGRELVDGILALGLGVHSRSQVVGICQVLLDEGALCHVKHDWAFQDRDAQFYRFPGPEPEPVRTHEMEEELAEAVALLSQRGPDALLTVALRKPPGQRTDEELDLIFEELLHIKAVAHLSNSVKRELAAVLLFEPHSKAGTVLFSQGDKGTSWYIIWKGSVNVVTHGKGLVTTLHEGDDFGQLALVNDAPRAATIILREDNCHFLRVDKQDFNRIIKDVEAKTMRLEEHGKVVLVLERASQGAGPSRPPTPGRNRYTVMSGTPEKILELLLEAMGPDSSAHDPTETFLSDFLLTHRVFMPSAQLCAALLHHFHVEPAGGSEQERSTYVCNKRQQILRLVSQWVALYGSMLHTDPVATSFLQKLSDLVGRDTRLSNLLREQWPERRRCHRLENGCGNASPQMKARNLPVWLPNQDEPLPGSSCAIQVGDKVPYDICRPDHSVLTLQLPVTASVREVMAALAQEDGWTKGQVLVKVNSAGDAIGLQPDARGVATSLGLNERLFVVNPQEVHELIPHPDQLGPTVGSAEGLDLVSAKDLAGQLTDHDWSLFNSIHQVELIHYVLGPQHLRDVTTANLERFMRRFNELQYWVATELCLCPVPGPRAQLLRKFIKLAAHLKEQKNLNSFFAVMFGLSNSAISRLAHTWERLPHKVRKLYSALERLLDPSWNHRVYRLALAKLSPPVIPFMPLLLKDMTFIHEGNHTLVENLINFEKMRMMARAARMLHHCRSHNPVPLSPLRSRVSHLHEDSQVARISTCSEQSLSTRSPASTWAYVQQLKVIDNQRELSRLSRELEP

COc1cc(/C=C2\SC(=S)N(NS(=O)(=O)c3ccc(C)cc3)C2=O)cc(OC)c1OC
Potency [1]: active: 26.9 µM | Potency [2]: inactive

Nc1ccc2c(O)cc(S(=O)(=O)O)cc2c1
Potency [1]: active: 4.26 µM | Potency [2]: inconclusive [activator, partial curve] | Potency [3]: inactive

C=CCc1ccccc1OCCSc1nc(-c2ccccc2F)nc2cc(=O)[nH]n12
Potency [1]: inconclusive [inhibitor, partial curve] | Potency [2]: inactive

CCOc1ccc(-c2cccc(NC(=O)c3ccco3)c2)nn1
Potency [1]: inactive | Potency [2]: inconclusive [activator, full curve] | Potency [3]: active: 84.9 µM

Cc1c(C(=O)N2CCC2)oc2ccc(Br)cc12
Potency [1]: inactive | Potency [2]: inactive

CCn1nc(C)c(C(=O)Nc2cc(Oc3ccc(Cl)cc3)cc([N+](=O)[O-])c2)c1C
Potency [1]: inactive | Potency [2]: inconclusive [activator, partial curve, poor fit] | Potency [3]: inactive

COc1ccc(/C=C2\SC(=S)N(CCC(=O)N3CCCCC3CCO)C2=O)cc1 (centres undefined)
Potency [1]: inconclusive [inhibitor, partial curve, poor fit] | Potency [2]: inconclusive [activator, single point]

Cc1ccccc1OCC(=O)Nc1ccc(C(=O)OCc2cc(=O)n3c(C)csc3n2)cc1
Potency [1]: inconclusive [inhibitor, single point] | Potency [2]: inconclusive [activator, partial curve, poor fit]

CC(C)(C)OC(=O)N1CCC(c2c(C(=O)NCCN3CCC(Cc4ccccc4)CC3)cnn2-c2cccc(Cl)c2)CC1
Potency [1]: inconclusive [inhibitor, partial curve, poor fit] | Potency [2]: inactive

Cc1ccc(-c2nn(-c3ccccc3)cc2C=C2SC(=S)N(CCS(=O)(=O)O)C2=O)cc1
Potency [1]: inconclusive [inhibitor, full curve, poor fit] | activation [2]: inactive: 6.87% [at 17.1 µM, percent relative to cAMP agonist control]

CNC(=S)N1CCc2cc(OC)c(OC)cc2C1COc1ccc(F)cc1 (centres undefined)
Potency [1]: inconclusive [inhibitor, full curve] | activation [2]: inactive: 0% [at 17.1 µM, percent relative to cAMP agonist control]

COc1ccc(OC)c(C(C[N+](=O)[O-])c2c(C)cc3ccccn23)c1 (centres undefined)
Potency [1]: inactive | Potency [2]: inactive | Potency [3]: inconclusive [inhibitor, single point]

Cc1ccc(Cn2c(Cc3ccccc3)nc3ccccc32)cc1
Potency [1]: inactive | Potency [2]: inconclusive [activator, partial curve, poor fit]

Cc1cccc2c3c(ccc12)C1=C(C(=O)C3=O)C(C)CO1 (centres undefined)
Potency [1]: inconclusive [inhibitor, full curve] | Potency [2]: inactive | Potency [3]: inconclusive [inhibitor, partial curve, poor fit]

CCOC(=O)c1cc2c(=O)n3ccccc3nc2n(C(C)C)c1=NC(=O)c1cc2ccccc2o1
Potency [1]: active: 75.7 µM | Potency [2]: inconclusive [activator, partial curve, poor fit] | Potency [3]: inactive

Cc1onc(-c2c(F)cccc2Cl)c1C(=O)Oc1ccccc1
Potency [1]: inactive | activation [2]: inactive: 1.99% [at 17.1 µM, percent relative to cAMP agonist control]

O=C(NN1C(=O)/C(=C/c2ccc(O)c([N+](=O)[O-])c2)SC1=S)c1ccccc1Cl
Potency [1]: active: 84.9 µM | Potency [2]: inactive | Potency [3]: inconclusive [inhibitor, partial curve]

O=C(C(=Cc1ccccc1)c1ccccc1)c1ccccc1
Potency [1]: inactive | Potency [2]: inconclusive [activator, partial curve, poor fit]

CCCN1C(=O)c2[nH]nc(-c3ccc(F)cc3)c2C1c1ccc(O)c(OCC)c1 (centres undefined)
Potency [1]: inconclusive [inhibitor, partial curve, poor fit] | Potency [2]: inconclusive [activator, partial curve, poor fit]

Cc1ccc(CN2C(=O)CSC2c2ccc(F)cc2)cc1 (centres undefined)
Potency [1]: inactive | Potency [2]: inactive | Potency [3]: inconclusive [inhibitor, full curve] | Potency [4]: inconclusive [activator, partial curve, poor fit]
